Whole data set: some 110,000 compounds, median “z-score” near -0.1, cut for the highest 2% near 2. This is one part of the list. Calls of active or inactive are those of the source.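 Rule for the calls: active = z-score in the third read window above 3 or below -3; inactive = the rest.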

The target in the test is Metabotropic glutamate receptor 8 (Rattus norvegicus) (UniProt P70579). Put plainly: rat mGluR8 modulators via GIRK flux, primary screen, cell-based, thallium flux, HTS (AID 488969). The conditions noted are these: HEK293 rat mGluR8, GIRK (G protein-gated inwardly rectifying potassium channel) thallium flux, FluoZin2; at 10 µM; stronger effect = higher value; submaximal glutamate (EC20) added with thallium.
Sequence of UniProt P70579 (P70579 whole entry, looked up): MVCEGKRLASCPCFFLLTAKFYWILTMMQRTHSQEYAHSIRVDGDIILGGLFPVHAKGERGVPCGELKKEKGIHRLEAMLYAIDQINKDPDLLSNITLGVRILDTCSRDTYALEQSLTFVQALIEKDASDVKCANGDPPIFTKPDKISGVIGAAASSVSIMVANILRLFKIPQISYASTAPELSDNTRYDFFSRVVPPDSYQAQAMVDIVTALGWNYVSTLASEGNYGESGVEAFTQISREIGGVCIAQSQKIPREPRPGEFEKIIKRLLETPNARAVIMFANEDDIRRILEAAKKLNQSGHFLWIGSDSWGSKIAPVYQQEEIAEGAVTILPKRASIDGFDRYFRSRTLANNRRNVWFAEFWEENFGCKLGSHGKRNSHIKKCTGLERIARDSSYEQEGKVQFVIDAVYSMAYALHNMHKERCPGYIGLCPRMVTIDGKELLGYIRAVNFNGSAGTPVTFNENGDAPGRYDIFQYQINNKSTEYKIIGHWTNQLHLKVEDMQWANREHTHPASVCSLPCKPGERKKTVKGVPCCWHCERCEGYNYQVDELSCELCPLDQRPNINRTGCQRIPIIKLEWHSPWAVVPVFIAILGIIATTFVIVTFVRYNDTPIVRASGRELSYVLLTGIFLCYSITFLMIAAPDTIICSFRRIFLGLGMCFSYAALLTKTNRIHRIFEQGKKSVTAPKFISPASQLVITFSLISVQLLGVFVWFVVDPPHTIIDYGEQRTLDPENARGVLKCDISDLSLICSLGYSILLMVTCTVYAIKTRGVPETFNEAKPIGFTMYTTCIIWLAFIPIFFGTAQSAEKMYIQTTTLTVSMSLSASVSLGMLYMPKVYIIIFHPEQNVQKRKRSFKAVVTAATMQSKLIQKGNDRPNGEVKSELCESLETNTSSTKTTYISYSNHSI
For `Cc1cc(NC(=O)c2cc(-c3cccs3)nc3ccccc23)no1`, the z-score is 0.906.
`CCCc1ccc(/C=C2\C(=O)c3ccccc3C(O)=C2C(=O)OCC)cc1` returned a z-score of -0.286.
To `CC(=O)N1CCc2cc(C(=O)CN3CCN(c4cccc(Cl)c4)CC3)ccc21` belongs -0.422.
Consider `Cc1nc(C)c(C(=O)C2=C(O)C(=O)N(CCN(C)C)C2c2ccccc2)s1` (stereo not given), for which the z-score is 0.215.
To `COCC(=O)N(C)c1nnc(-c2cnccn2)s1` belongs 0.018; to `N#C/C(=C\C1CC2C=CC1C2)c1nc2ccccc2[nH]1` (stereo not given), -0.254.
In the case of `CCOc1ccc(NC(=S)NC(=O)/C=C/c2ccc(C)cc2)c([N+](=O)[O-])c1` it was 0.317; in that of `CCOC(=O)c1c(C)[nH]c(C(=O)C(C)Sc2ccc(Cl)cc2)c1C` (stereo not given), -0.12; in that of `CC1CCC(=C(C#N)c2nc(-c3cc4ccccc4oc3=O)cs2)CC1` (stereo not given), -1.32.
In the case of `COc1ccc(OCC(=O)O/N=C(\N)Cc2ccc(Cl)cc2Cl)cc1` it was 0.353; in that of `COc1ccc(/C=N/NC(=O)COc2cccc3ccccc23)c(C(=O)O)c1OC`, -0.209; in that of `O=C(CSc1ccsc1[N+](=O)[O-])N1CCN(c2ccccc2)CC1`, -0.247.
`CCNC(=S)NNC(=O)c1ccc(OC(F)F)cc1` returned a z-score of -0.194.
`CC(=O)Nc1cc(NC(=O)C2C3C=CC(C3)C2C(=O)O)ccc1Cl` (stereo not given): the z-score is -0.156.
For the molecule `CCOC(=O)CSc1nnc(CSc2nc3sc4c(c3c(=O)[nH]2)CCC4)n1-c1ccccc1`, the z-score was -0.572.
In the case of `COc1ccc(C)cc1NC(=O)c1cc2ccccc2cc1OCC(=O)NCc1ccco1` it was -0.19; in that of `CC(=O)c1cccc(NC(=O)CCC2CCCC2)c1`, -0.34; in that of `O=C(CSCc1c(Cl)cccc1Cl)Nc1ccc2c(c1)OCO2`, -0.187.
On to `COc1ccc(C2C(C#N)=C(/N=C/N3CCOCC3)OC3=C2C(=O)CC(C)(C)C3)cc1OC` (stereo not given), for which the z-score is 0.0234.
To `Cc1ccc(C(=O)NCc2ccco2)cc1S(=O)(=O)Nc1cccc(Cl)c1` belongs 0.648; to `COc1ccc(N2C(=S)N(C(=O)c3ccccc3)C(=Nc3ccccc3)C2=Nc2ccccc2)cc1`, -1.23.
`CCOC(=O)C1=C(C)NC(C)=C(C(=O)OCC)C1c1cc(N)ccc1OC(F)F` displayed a z-score of 0.589.
In the case of `COC(=O)Cn1c(CN2CCc3ccccc3C2)nc2c1c(=O)n(C)c(=O)n2C` it was active: 5.81; in that of `Oc1ccccc1-c1nnc(-c2ccc(C(F)(F)F)cc2)o1`, 1.18.
In the case of `OC(CC1CC12c1ccccc1-c1ncccc12)(c1ccccc1)c1ccccc1` (stereo not given) it was -0.549; in that of `O=C(NCCN1CCNCC1)c1ccccn1`, -0.233.
To `COc1cc(CNC2CCCCCC2)cc(OC)c1` belongs 0.372; to `O=C(COc1ccc(S(=O)(=O)N2CCCCC2)cc1)NC1CCCCC1`, -0.0527; to `C=CCNC(=O)/C(C#N)=C\c1cc(Cl)c(OCC)c(OC)c1`, -0.355.
In turn, `COC(=O)Nc1ccc(S(=O)(=O)N2CCCCCC2)cc1` gave a z-score of 0.0534.
On to `CCNc1c(NC(C)=O)c(=O)oc2ccccc12`, for which the z-score was -0.177.
`Cc1sc2nc(CN3CCC(C)CC3)nc(Cl)c2c1C` had a z-score of -0.57.
As for `Cc1nc(-c2cn[nH]c2-c2ccc(O)cc2O)cs1`, the z-score was -0.501.
As to `Cc1nn(C)cc1C(=O)NNC(=S)Nc1ccc(Cl)cc1`, the z-score amounted to 0.0234.
In the case of `O=C(CCN1CCN(c2ccc(F)cc2)CC1)Nc1ccccc1F`, the z-score is -0.192.
Molecule `O=C(NCCc1ccccc1)c1ncn[nH]1` had a z-score of 0.205.
In the case of `Cc1ccc(-n2nc(C(=O)c3ccccc3)n3c(=O)cc(-c4ccccc4)nc23)cc1` it was 1.02.
In the case of `O=C1C(=O)c2ccc(-c3ccccc3)cc2-c2ccccc21` it was -0.359; in that of `CCS(=O)(=O)c1ccc(S(=O)(=O)CC)s1`, -0.137.
`O=C(NC1(C(F)(F)F)N=C2SCCN2C1=O)c1ccco1` (stereo not given) returned a z-score of -0.349.
In the case of `CC(C(=O)OCC(=O)Nc1ccc(S(=O)(=O)N2CCCCC2)cc1)N1C(=O)c2ccccc2C1=O` (stereo not given) it was 0.0234; in that of `COc1ccc(CN(C)Cc2ccccc2)c(OC)c1OC`, -0.0272.
In turn, `CC(c1ccccc1)C(CC(=O)O)C(=O)NC1CCCCC1` (stereo not given) yielded a z-score of -0.131.
In the case of `COC(=O)c1cc(Br)c(=O)n(CCC2=CCCCC2)c1` it was -0.943.
In the case of `O=C(Cc1sc(-c2ccccc2)nc1-c1ccccc1)Nc1ccc(Cl)cc1` it was 0.0651.
For the molecule `O=C(NCc1ccc2c(c1)OCO2)c1ccc(CSCc2ccc(Cl)cc2)o1`, the z-score was -0.191.
Regarding `CC(=O)C1=C(O)C(=O)N(C2CCCCC2)C1c1ccccc1` (stereo not given), the z-score was -0.691.
Regarding `C=CCC(C#Cc1ccc(C)cc1)N(CC)CC` (stereo not given), the z-score was -0.418.
In the case of `COc1ccc(S(=O)(=O)NNC(=O)c2cc3ccccc3o2)cc1` it was 0.198; in that of `Cc1nc2c(-c3ccc(F)cc3)c(C)nn2c(C)c1CCC(=O)NCCN1CCOCC1`, -0.0995.
In the case of `Cc1sc2c(c1C)c(=O)n(-c1cccc(C(F)(F)F)c1)c(=O)n2CC(=O)NCc1ccco1` it was -0.979; in that of `C=CCSc1nnc2c(n1)OC=Nc1ccc(Br)cc1-2`, -0.557.
With `CC(C)(C)C1CCC2(CC1)NC(=S)N(c1ccccc1)N2` (stereo not given), the z-score came out at 0.0264.
For `Cc1cccc(OCCOCCN2CCNCC2)c1C`, the z-score worked out at 0.208.
Take `Cc1ccc(Oc2c(C(N)=O)cc([N+](=O)[O-])cc2[N+](=O)[O-])cc1`: the z-score came to 0.52.
Molecule `CCN(C(=O)COC(=O)c1ccccc1Nc1cccc(C)c1C)C1CCS(=O)(=O)C1` (stereo not given) returned a z-score of 0.0398.
In the case of `COc1cccc2cc(C(=O)NCC3CCCO3)c(=O)oc12` (stereo not given) it was -0.108.
The molecule `O=C1/C(=C\Nc2ccc(OC(F)(F)F)cc2)CCN1c1ncccn1` yielded a z-score of 0.0056.
`CCOC(=O)c1cc(-c2ccncc2)nc2c1c(C)nn2-c1ccccn1` had a z-score of -2.01.
To `COc1ccccc1CNC(=O)CN1C(=O)C(C)N(c2ccc(C)cc2)C1=O` (stereo not given) belongs -0.66; to `CN(c1ccc(C(=O)Nc2ccc3c(c2)OCCO3)cc1)S(C)(=O)=O`, -0.209.
In the case of `Cn1c(C(=O)NCc2cccnc2)cc2sccc21` it was 0.077.
In the case of `N#CC(c1ccc(Cl)nn1)c1ccc(Cl)cc1Cl` (stereo not given) it was -0.287; in that of `CC(C)NS(=O)(=O)c1ccc(CCC(=O)O)cc1`, -0.107; in that of `Cc1cc(C)cc(-n2c(SCC(=O)NCc3ccc4c(c3)OCO4)nc3ccccc3c2=O)c1`, -0.107.
`O=C(O)CCCC(=O)Nc1ccc(Sc2ccc([N+](=O)[O-])cc2)cc1` yielded a z-score of -0.313.
For `O=C(/C=C/c1ccccc1Cl)Nn1cnc2ccccc2c1=O`, the z-score was -0.163.
With `O=C(CC(=O)c1ccccc1O)c1ccc(F)cc1`, the z-score is active: 7.61.
To `CCOc1cc(CNn2cn[nH]c2=S)cc(Cl)c1OCc1ccccc1F` belongs 0.108; to `CCOC(=O)Nc1ccc2c(c1)N(C(=O)CN1CCN(C)CC1)c1ccccc1S2`, 0.133.
